Experimental data taken from PubChem BioAssay AID1347073 (National Center for Advancing Translational Sciences (NCATS), 2019).
In all, about 45,000 compounds went through this assay and about 200 (0.44%) were called active. About 7% were inconclusive and are not listed. Calls come from the whole dose curve; as a rule, active = well fitted activation curve with a large enough effect; inconclusive = small, poorly fitted or top-dose-only effect; inactive = no such curve, though single readings can be large or run the other way. The list shows a part of the results.

Assay: qHTS of TDP-43 Inhibitors: NCGC Sytravon Library Screen; note: 0% is about no effect; nearly all actives have a fitted effect of over 55% in size
Details: yeast TDP-43 toxicity rescue, BacTiter-Glo growth, 24 h; series mostly up to 46.1 µM; growth rescue (activation): at the top concentration
Method in brief: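 TDP-43-expressing yeast, pregrown in raffinose, seeded at OD600 0.02 in galactose medium with compound for 24 hr at 30 deg C. Growth read by BacTiter-Glo luminescence, so rescue of toxicity appears as activation.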

| SMILES | growth rescue (activation) |
| --- | --- |
| CCC1(c2ccccc2)NC(=O)N(CC(=O)Nc2cccc(S(=O)(=O)N3CCCCC3)c2)C1=O (configuration not stated) | inactive: 25.6% |
| Clc1ccc(-c2cc(C3CCNCC3)[nH]n2)c(Cl)c1 | inactive: 9.06% |
| NS(=O)(=O)c1ccc(NC(=O)c2cccc(Cl)c2)cc1 | inactive: -1.4% |
| Cc1cc(OCC(=O)OCC(=O)Nc2cc(S(=O)(=O)N3CCOCC3)ccc2Cl)ccc1Cl | inactive: -3.45% |
| Cc1cc(C)nc(-n2nc(C)cc2NC(=O)C(C)C)n1 | inactive: -1.22% |
| O=C(CSc1n[nH]c(=O)[nH]c1=O)N/N=C/c1ccccc1 | inactive: 10.7% |
| CCOc1cccc2cc(-c3nc4ccc(C(=O)O)cc4[nH]3)c(=O)oc12 | inactive: 14.9% |
| CC(C)CN(CC(C)C)C(=O)CN1C(=O)NC2(CCCc3ccccc32)C1=O (configuration not stated) | inactive: 6.19% |
| C/C(CC(=O)Nc1ccc2c(c1)OCCO2)=N\NC(=O)c1ccccc1Cl | inactive: -13.7% |
| CCc1nc2c(OCc3ccc(OC(F)F)cc3)cccn2c1N(C)C(=O)c1cccs1 | inactive: -2.47% |
| CC(=O)c1ccc(-c2ccc(C(=O)NCC(c3ccco3)N(C)C)o2)cc1 (configuration not stated) | inactive: 14.5% |
| Oc1cccnc1CCc1ccccc1 | inactive: 2.82% |
| Cc1ccc(C)c(CN2C(=O)c3ccccc3S(=O)(=O)c3ccc(C(=O)N4CCCCCC4)cc32)c1 | inactive: 15% |
| COc1ccc(NC(=O)N2CCCC2C(=O)NCC2CCCCC2)cc1 (configuration not stated) | inactive: 8.86% |
| O=C(/C=C/c1cccc(F)c1)N1CCc2ccccc21 | inactive: 24.6% |
| Cc1cc(C)n(C(C)CNS(=O)(=O)c2ccc(Cl)cc2)n1 (configuration not stated) | inactive: -9.14% |
| O=C(NCc1cccnc1)c1cccc(-c2cc3ccccc3oc2=O)c1 | inactive: 3.43% |
| O=C(NCC1CCCO1)C1CC(=O)N(c2ccc(Cl)cc2)C1 (configuration not stated) | inactive: -16.6% |
| C/C(=N\NC(=O)c1ccc(CN2CCOCC2)cc1)c1ccc(NC(=O)c2ccccc2)cc1 | inactive: 12% |
| O=C(Nc1cccc(C(=O)O)c1)/C(=C\c1ccco1)NC(=O)c1ccccc1 | inactive: -7.03% |
| Cc1onc(-c2ccccc2)c1C(=O)N1CCN(c2ncccn2)CC1 | inactive: 7.63% |
| CC(C)(C)c1nnc(NC(=S)Nc2ccccc2)s1 | inactive: 18% |
| CCOC(=O)c1cnc2ccc(C)cc2c1N(C)Cc1ccccc1 | inactive: -15.6% |

| SMILES | growth rescue (activation) |
| --- | --- |
| COC(=O)CNC(c1ccccc1)c1cc(Br)ccc1NC(=O)CNC(=O)OCc1ccccc1 (configuration not stated) | inactive: 14.9% |
| O=C1N(c2ccccc2)C2CS(=O)(=O)CC2N1c1ccc(Br)cc1 (configuration not stated) | inactive: -10.3% |
| COc1ccc(CN2CCN(C(=O)C3CCC(CNS(=O)(=O)c4ccccc4)CC3)CC2)c(OC)c1OC (configuration not stated) | inactive: 15.2% |
| Cc1ccc(N(CC(=O)NC(C)(C)C)C(=O)CNC(=O)c2cccs2)cc1 | inactive: -7.94% |
| CC(=O)c1ccc(C(=O)NC2CCCN(Cc3ccc(Cl)cc3)C2)s1 (configuration not stated) | inactive: 9.64% |
| O=C(/C=C/Nc1ccc(Nc2ccccc2)cc1)c1cccs1 | inactive: -6.74% |
| Cc1cc(Oc2ccc(Br)cc2)nc(SCC(=O)c2ccccc2)n1 | inactive: -5.62% |
| CCCCc1ccc(S(=O)(=O)NC(=O)C2(C)CCN2C(=O)CCc2cccs2)cc1 (configuration not stated) | inactive: 21.4% |
| O=C(OCC(=O)N1CCCC1)c1cccs1 | inactive: 0.0991% |
| O=C(NC1CCCCC1)N1CCN(Cc2nc3ccccc3c(=O)[nH]2)CC1 | inactive: 14.1% |
| COc1ccc(C(=O)NNC(=O)c2ccc(C(C)(C)C)cc2)cc1 | inactive: 14.7% |
| CC(=O)c1cc(-c2ccc(F)cc2)n(CCC(=O)Nc2cccnc2)c1C | inactive: -9.08% |
| CCOC(=O)C1(C)CCN1C(=O)c1ccc(C(F)(F)F)cc1 (configuration not stated) | inactive: 6.43% |
| Cc1ccc(-c2nnc(SCC(=O)N/N=C/c3ccc(C)s3)n2-c2ccc(C)cc2)cc1 | inactive: -5.7% |
| O=C(c1cccnc1)N(Cc1ccccc1)C1(C(=O)Nc2ccccc2)CCCCC1 | inactive: 17.1% |
| CCn1c(C)nc2cc(C(=O)N/N=C/c3ccc(OC)c(O)c3)ccc21 | inactive: 11.4% |
| O=C(CCCCCCCCCCC(=O)NCc1cccnc1)NCc1cccnc1 | inactive: -6.31% |
| Cn1cc(-c2csc(C(O)c3ccc(F)cc3)n2)cn1 (configuration not stated) | inactive: 38.8% |
| Cc1ccc(C(=O)NN2C(=O)C3C4c5ccccc5C(c5ccccc54)[C@@H]3C2=O)cc1 (some centres not stated) | inactive: -20% |
| Cc1nnc(SCC2=C(C(=O)O)N3C(=O)C(NC(=O)C(C)n4nc(C(F)(F)F)cc4C)C3SC2)s1 (configuration not stated) | inactive: -3.1% |
| Cc1[nH]n(-c2cccc(Cl)c2)c(=O)c1C=NCc1ccco1 | inactive: 19.4% |
| CC(Sc1nnc2c(n1)[nH]c1ccccc12)C(=O)N(C)C1CCCCC1 (configuration not stated) | inactive: 8.77% |
| O=C(/C=C/c1ccc(Cl)cc1)Nc1ccc(CN2CCOCC2)cc1 | inactive: -2.5% |

| SMILES | growth rescue (activation) |
| --- | --- |
| CCN(CC)C1=NS(=O)(=O)c2cc([N+](=O)[O-])ccc21 | inactive: 6.97% |
| COC(=O)c1cccc(Nc2nc(-c3ccncc3)nc3ccccc23)c1 | inactive: 10.2% |
| O=C(c1cccs1)N1N=C(c2ccccc2)CC1c1ccccc1O (configuration not stated) | inactive: 10.6% |
| CCCNC(=O)C1(C)CCCN(Cc2ccc(-c3ccccc3)o2)C1 (configuration not stated) | inactive: -1.43% |
| O=C1C(Nc2ccc(O)cc2)=C/C(=N/S(=O)(=O)c2cccs2)c2ccccc21 | inactive: -16.4% |
| O=C(Nc1cccc(Cl)c1)c1cncn1-c1ccc(F)cc1 | inactive: 2.61% |
| COc1ccc(OCc2nnc(SC(C)C(=O)Nc3ccc(N4CCOCC4)cc3)n2C)cc1 (configuration not stated) | inactive: -10.8% |
| O=C(Cc1ccccc1F)NCC(c1ccco1)N1CCCCC1 (configuration not stated) | inactive: 14.3% |
| Cc1ccc(C(=O)COC(=O)c2cc(=O)[nH]c3ccccc23)cc1 | inactive: -21.8% |
| CC(=O)N1CCc2cc(N=NC3=C(O)CC(C)(C)CC3=O)ccc21 | inactive: -7.67% |
| N#Cc1ccccc1Sc1ccccc1C(=O)N1CCOCC1 | inactive: -8.83% |
| COc1ccc(OC)c(NC(=O)CCn2ccnc2)c1 | inactive: -2.69% |
| CC(NC(=O)c1cc2ccccc2oc1=O)c1ccc(O)cc1 (configuration not stated) | inactive: -7.84% |
| COc1ccc(NC(=O)CCS(=O)(=O)c2cccc3nonc23)cc1Cl | inactive: 6.28% |
| COCCN1C(=O)C(CC(=O)Nc2ccc(C(C)=O)cc2)SC1=Nc1ccccc1 (configuration not stated) | inactive: 11.2% |
| O=C(O)/C=C/C(=O)Nc1ccc(NC(=O)c2ccccc2)c(Cl)c1 | inactive: -1.28% |
| NS(=O)(=O)c1cccc(NC(=O)c2ccc(NS(=O)(=O)c3cccc([N+](=O)[O-])c3)cc2)c1 | inactive: -9.78% |
| O=C(NC1CC1)C1CCN(C2CCN(C(=O)Cc3ccc(F)cc3)CC2)CC1 | inactive: 2.73% |
| Cc1nc2c3cnn(-c4ccc(C)c(C)c4)c3ncn2n1 | inactive: 6.93% |
| O=C(NCc1cccnc1)c1cc(C2CCCCN2S(=O)(=O)c2ccccc2)on1 (configuration not stated) | inactive: 20.4% |
| Cc1ccccc1NC1(C#N)C(=O)Nc2ccccc21 (configuration not stated) | inactive: 26% |
